Reference: the supplement of paper PMC11417369
± gives the standard deviation of the averaged measurements. The list shows a part of the results.

system: PfAP2-G AP2 domain (GST-tagged); test: gcPBM binding intensity (ln(normalized median fluorescence intensity)); higher = stronger DNA binding
Procedure, shortened: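 The binding buffer was 1× PBS containing 1% milk, 0.2 mg/ml BSA, 0.5% salmon testes DNA and 0.03% Triton X-100. In it, GST-tagged P. falciparum DNA-binding domains expressed in E. coli were applied for 1 h to an Agilent 4 × 180k array of primer-extended double-stranded 36-bp intergenic genomic probes plus negative controls. Binding intensity, read with Alexa488 anti-GST antibody and a 488 nm scan, is the highest Masliner-normalised natural-log median intensity across replicate spots of either probe orientation.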

| Sequence | gcPBM binding intensity (ln) |
| --- | --- |
| ATTTTATTTATATACACACACATATATATATTATAT [CACACA_site822] | 10.1 ± 0.16 |
| AAATAAATAAATATACGTACATATATATAATATATA [XGTACX_site5124] | 11.3 ± 0.77 |
| TTTTTTTTGATTTGTTTGCACTTATTTCCACAATAA | 10.3 ± 0.2 |
| TTTTTTTTTAATTACATAAAATAAAAATATTTCTAT [CACACA_negctrl_site584] | 9.695 ± 0.021 |
| TTAATATGTTTAACCATTTTACATAAATTGATTTGT [CACACA_negctrl_site1100] | 10 ± 0.17 |
| TACGTAAATTTTAATACACACTATAGGATATTCTGC [CACACA_site5418] | 9.895 ± 0.007 |
| TTTTGCGAAAAAAGGTGTACTGTAAATATATTGAGG [XGTACX_site8941] | 11.6 ± 0.95 |
| AGCACCCACCAACACACACACACACCCACCCACCGA [CACACA_site368] | 10.3 ± 0.28 |
| TATATATATACATACGTACACACAAATATTAAAATA [CACACA_site1950] | 11.8 ± 1.2 |
| TAAAAAAAATAGAAACGTACATAAAAAATAAATAAT [XGTACX_site5796] | 11.3 ± 0.6 |
| TATATATTTATATTTACACACAGTTACTATGTAGAT [CACACA_site3292] | 9.98 ± 0.19 |
| ATTAAATGATCAAGGTGTACATTAACAAGAACTATA [XGTACX_site7022] | 11.5 ± 0.91 |
| TGAATAAAAAAACCTAGTACTTAAATAAGTATATTT [XGTACX_site7690] | 10.8 ± 0.43 |
| TCATATAAAACATGCACACATATGTACTCTTATAAA [CACACA_site3748] | 11.3 ± 0.7 |
| TTTATTAATGGACACACACACACACCCAAAATAAAA [CACACA_site4294] | 11 ± 0.77 |
| TATATTTATATATGTTGTACTCTCCAATAATATTCC [XGTACX_site4438] | 11.2 ± 0.82 |
| CTCCACAAACAAATCGCACACCCAACCCAACATATA [CACACA_site2650] | 10.2 ± 0.13 |
| TATTATAATGACTATAGTACATAATATTATTTATAT [XGTACX_site1977] | 10.7 ± 0.5 |
| ATAGAACTGAATAAATCTATAAATAAATATATATAT [GTGCAC_negctrl_site604] | 9.545 ± 0.092 |
| TCATACCTACATAAAAAAAGGGAAACAAAATGTCAT [XGTACX_negctrl_site34] | 9.87 ± 0.028 |
| TTAAAAAAAAAAAAAAGTACACACTTATAAAATATT [XGTACX_site1630] | 11.6 ± 0.91 |
| ACCAATAAATATTTGGTGCATACATATATATATATA | 10.1 ± 0.27 |
| AATAAATATAAATACACACCCATATATATATATATA [CACACA_site5436] | 10.2 ± 0.47 |

| Sequence | gcPBM binding intensity (ln) |
| --- | --- |
| TTTATTTATTAATACACACACACACCCCCACAAAAT [CACACA_site240] | 11.4 ± 0.67 |
| TTTTACATATATATATGTACGAAAATGAAAAGGTCA [XGTACX_site5576] | 11 ± 0.67 |
| TATTATAATTTTATATGTACACATATATAAATATAT [XGTACX_site4054] | 11.4 ± 1.1 |
| AAAGTTACATTCGACACACACATAACAACTAAATAA [CACACA_site3419] | 10.2 ± 0.22 |
| TCAAAGAGTAGAAAGGTGCTTATGAACGAGATAATT | 9.87 ± 0.12 |
| CTAAATAAAGTTAACACACACATAATATTTATATGT [CACACA_site6368] | 9.905 ± 0.007 |
| TACATAAACATTTATACACACATTAGATATACATAT [CACACA_site6329] | 10.02 ± 0.071 |
| AACTAAATTTATAATTGTACATTAAAATATGTATTA [XGTACX_site479] | 10.8 ± 0.45 |
| TTTTTTAAAACTTCAAAAAGAGCACTTGAATTTTTT [GTGCAC_negctrl_site455] | 9.94 ± 0.19 |
| ACATATACATTTATATGTACTCATTTATCTTATGTA [XGTACX_site6594] | 11.3 ± 0.76 |
| AAATATTACATACACGCACACATTAATATATTTAAA [CACACA_site2603] | 10.4 ± 0.25 |
| ACAAGAACAGAACGTACACACACATATATATATATA [CACACA_site9143] | 11.3 ± 0.89 |
| ACCTACACAAGCATTAAACACACAAAAGGGATACTT [CACACA_site8273] | 10 ± 0.11 |
| ACCTAATTTTTATATTGTACATAATATAATATATAT [XGTACX_site1715] | 10.9 ± 0.52 |
| TATGTGATATATTTATCACACATTATATATATATAT [CACACA_site5103] | 10.1 ± 0.73 |
| GATTTTCATATTTTTTGTACTTACATTTTTCTATAC [XGTACX_site6002] | 11.2 ± 0.66 |
| ATAAAATCTTAATCAACAAACAAACAAAAAAAAAAT [CACACA_negctrl_site1161] | 9.87 ± 0.071 |
| ATAAATATATGGTTTCATTATATTAAATTCAATTTA [CACACA_negctrl_site213] | 9.79 ± 0.042 |
| TGTTTATTTTTTTTATGTACTTATTTTTTATTGCAT [XGTACX_site719] | 11.5 ± 0.79 |
| ATTCATTTTAATATGGGTACATAAAAATAAAAAGAA [XGTACX_site2801] | 11.4 ± 0.96 |
| AATATTTAATTCAACACACATACATATTTATTAAAA [CACACA_site2342] | 10 ± 0.28 |
| TAATATGAAAAGTGTACACACGCACAGACAAAAAAA [CACACA_site5594] | 11.6 ± 0.95 |
| GCATAAATCAGACACACACACATATATAAATATGTA [CACACA_site7187] | 9.91 ± 0.099 |

| Sequence | gcPBM binding intensity (ln) |
| --- | --- |
| TACATTTTTATTTTTACACACATATTTATTTATATA [CACACA_site6609] | 10.02 ± 0.021 |
| TATGATGATGAATAACGTACAAAAAAATTAATCACC [XGTACX_site6794] | 11.1 ± 0.66 |
| AGATAAAATATATACACACACATAAATACGTACAAA [CACACA_site1086] | 11.8 ± 1 |
| AACTTCTTTTTTATAACACACAAAATATATATACAA [CACACA_site282] | 10.1 ± 0.18 |
| AACTTATTAAGCCCTCCACATTTCTCTACTACAACT [CACACA_negctrl_site1552] | 9.955 ± 0.064 |
| TCTATTTTTCTAATTTGTACATAGCTTTGAGTTAGT [XGTACX_site8977] | 10.7 ± 0.39 |
| ATTTTTTTATTTTGTGCACACACATAAAAATATATA [CACACA_site762] | 10.7 ± 0.52 |
| GGCATACACAGACACACACACACACCCACATATATA [CACACA_site591] | 10.4 ± 0.33 |
| TAATTATCACATTGCACACACATTTCCTTTTACATT [CACACA_site3443] | 10.14 ± 0.092 |
| AATAAATAAATAAGTACACACATATATATATATATA [CACACA_site284] | 11.5 ± 1.1 |
| AAAAGAATGAAACATAATAAATTACATTAAAATAAT [CACACA_negctrl_site897] | 9.52 ± 0.22 |
| ACATATATTATATAACGTACATAACACTATTTCCTT [XGTACX_site6938] | 11.1 ± 0.66 |
| ATTTTTGTGACTAAGACATGCATAAGAGTAAAGAAA [TGCATGCA_site619] | 10.2 ± 0.18 |
| TATACATATATATACACACACATATATATATATATA [CACACA_site4] | 10.1 ± 0.39 |
| TATATATATATATTCACACATAAATATATGCACCCA [CACACA_site4263] | 10.2 ± 0.49 |
| TTTTTTTTTTGTAATTGTACTTTTTTAATACTTCTA [XGTACX_site4195] | 11.5 ± 1.1 |
| TAAGTCGCCAAAAGGTGTACACATAATGCATTATCA [XGTACX_site8852] | 11.8 ± 0.79 |
| AGTATAGTTATAAATTGTACATATTATTTATTTTAT [XGTACX_site949] | 10.9 ± 0.49 |
| TAAAAATAAAAATAACGTACATACATACTTATATAT [XGTACX_site3745] | 11.1 ± 0.74 |
| TAATTTTTTTAAAACACACAAATATGTAAATATGTA [CACACA_site7769] | 9.99 ± 0.14 |
| TAATATCATTTAGACACACACTCTTACAATCTGTAA [CACACA_site2590] | 9.92 ± 0.057 |
| AATCATTTATGGAAAGCATGCTAAATTAGAGTATAC [TGCATGCA_site172] | 10.03 ± 0.064 |
| ATCTAAACCTTTTGAGCACACATATATATATATATA [CACACA_site8526] | 10.4 ± 0.3 |

| Sequence | gcPBM binding intensity (ln) |
| --- | --- |
| ATGGGGAATAATGAATGTACACAAATAAAAAGTTGG [XGTACX_site4015] | 11.3 ± 0.72 |
| GTTTGAAGAACTATAAATGTATAAATAAAAGTTTAG [TGCATGCA_negctrl_site222] | 9.82 ± 0.12 |
| AAAAAAGTAAAAAAAGCACACACGAAAAAAAATAAA [CACACA_site2233] | 10.03 ± 0.035 |
| ATGGTGCAACATTATGCACACCGTTAAATAACTAAT [CACACA_site9280] | 10.5 ± 0.54 |
| CATGGGCAAATATTCTCACACATAAACATAAACATA [CACACA_site4597] | 10.1 ± 0.28 |
| CACATATAGTTATATGCACACATCTTACACATATAT [CACACA_site3692] | 10.2 ± 0.13 |
| TATCTGTATTTATATACACACATATTCTTTTTACAC [CACACA_site4798] | 10.1 ± 0.14 |
| AAAATCACAAAACACACACACACAAAAAAAAAAAAA [CACACA_site1443] | 9.99 ± 0.47 |
| TACAAAAATGAAAAAAGTACATATCATTTAATATAA [XGTACX_site8066] | 11.4 ± 1 |
| TTTTTTTTTTTTTTTTGTACTCATAAAAATATATTA [XGTACX_site3458] | 11.2 ± 1 |
| CATATATATATATATACACACACACCGTCCGTGTTA [CACACA_site8975] | 10.16 ± 0.085 |
| ATTACATGATATATCACACACACATATAAATATATA [CACACA_site2830] | 10 ± 0.057 |
| GGGAATTATGAAAAAAGTACAGAACAAAAGTAAAAG [XGTACX_site2861] | 11.6 ± 0.81 |
| ATATAGTAAAATTATACACACATGAATTTTCCCATG [CACACA_site1770] | 10 ± 0.014 |
| ATTTGATCAACAAAACGTACACATATTTTCATGTGT [XGTACX_site447] | 11.6 ± 0.87 |
| GAATAAATAAATAAATGTACATATATATTTATTTAT [XGTACX_site243] | 11.1 ± 0.66 |
| GTTCGAAGTATAATTTGTACATATAAAATGGTTCCC [XGTACX_site382] | 10.9 ± 0.55 |
| ATATGTATTTATATATGTTTGAATTTTTTTTTTTTT [CACACA_negctrl_site5] | 9.475 ± 0.078 |
| CTCTTTAAAAATATGGGTACAAAAAAAAAAAAAATA [XGTACX_site6185] | 11.3 ± 0.73 |
| ATTCTTTACTCATAAAATTATATTATATAAACTTTT [XGTACX_negctrl_site554] | 9.79 ± 0.21 |
